Reference: the supplement of paper PMC11417369
This is one part of the list.

Test system: PfAP2-HC AP2 domain (GST-tagged)
Assay: gcPBM binding intensity (ln(normalized median fluorescence intensity)); higher = stronger DNA binding
Summary of the method: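 GST-tagged P. falciparum DNA-binding domains, expressed in E. coli (about 25 μg on average), were applied for 1 h to an Agilent 4 × 180k array of primer-extended double-stranded 36-bp intergenic genomic probes plus negative controls. The binding buffer was 1× PBS with 1% milk, 0.2 mg/ml BSA, 0.5% salmon testes DNA and 0.03% Triton X-100. Bound protein was detected with Alexa488 anti-GST antibody and scanned at 488 nm. Binding intensity is the highest Masliner-normalised natural-log median intensity across replicate spots of either probe orientation.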

Sequence	gcPBM binding intensity (ln)
AAAAAAAAAAAAAATACACACAAACACAAATTAAAT [CACACA_site5982]	10.8
GTAATATTATAATATACACACATAGAATATATATAT [CACACA_site413]	9.82
AAGATCATATATTCGTGGGTATAAAAAGTTATAATA [TGCATGCA_negctrl_site439]	9.54
AGAAATATGTTGAAGCATTTATAATGTAGATATAAG [GTGCAC_negctrl_site640]	9.72
TTATTAAAGGAAAAATGTACATATAAATGAATATGT [XGTACX_site23]	9.52
AAAAAATGTAAATATAAACAACCAAAGGGGGTATAC [GTGCAC_negctrl_site465]	10
TACGTGAAGTTATATACACACATAAATATGTCTGTA [CACACA_site7463]	9.75
ATAATATTTTATGGTTGTACTTTTAGTTCTTTTTTT [XGTACX_site5756]	9.7
ATTAAATATATTTTGCGTACACAAAAAAATACGTTC [XGTACX_site3862]	9.83
TTAAAGTATAACTGTACATGCGAGTAAAAGAATGAC [TGCATGCA_site899]	9.98
GAAAAAAAACACATTGTGCACTTTTCCTTAAGTATA [GTGCAC_site9475]	9.58
GGAGAAAAAAAAAAAAAACACACGGTACATTCAAAG [CACACA_site1503]	9.92
TTTTTTTCGTATATTACACACTATATATAGAAATTA [CACACA_site298]	9.56
AAAAAAAAAAAGCACACACACATATGCGTATATATA [CACACA_site954]	10.9
AAAGAAGGTAAACACACACACACACCGACAAAAAAA [CACACA_site9255]	11.5
AAATTATCCAAAAATTGTACTTAAAACAACATAAAA [XGTACX_site6238]	9.58
ACCATTTGTAGGTAAACACACATTATTCTTAATATC [CACACA_site5453]	9.77
TTTCTCTTATTCCAATCTATAATAAGTATCAATATT [CACACA_negctrl_site179]	9.59
ATATATTCATTTTTATGTACGTAAATTGTAAATTGG [XGTACX_site8242]	9.62
AAAATAATAATAAAAAGTACATGTGTATATAATAAA [XGTACX_site754]	9.91
TGCATTATTTTATGAAGTACATATGAACAAAAAATT [XGTACX_site2185]	9.48
AATATTAAACAAATGAAAAAAAAATATATATTATAT [CACACA_negctrl_site742]	9.66

Sequence	gcPBM binding intensity (ln)
TATGTTTTTCGGTATGCATGCATATGCTTAATAATA [TGCATGCA_site184]	9.55
AAAATAACACAAATGGGTACATATTATATTAAATAA [XGTACX_site7027]	9.74
AATATATATATGATTATATATATATATATATATATA [GTGCAC_negctrl_site290]	9.35
TTTAATTAAAATATATGTACATATATATATATATAT [XGTACX_site4517]	9.66
GCACCAAAAAAAAGACGTACAGTTATATTAAAATAG [XGTACX_site8926]	9.6
AAATGAACAAGTGGCACACACACATTCTAACTAATT [CACACA_site3203]	10.6
ATATGATTTGGATGTAGTACATATTTTTTTATGTTT [XGTACX_site1929]	9.82
AACCAAATTTCACCATGTACATATTGATAAATATAT [XGTACX_site1374]	9.65
AATGAACAGACGAGCACACACACACCCATATATATA [CACACA_site1018]	10.9
TAATGTATTATTTAATGTACTTAAAAAATAAATAAA [XGTACX_site3296]	9.48
ACCTTTAATAAATACACACACATAAAAAAAATATAT [CACACA_site5086]	10.2
TATTATATGAATAATTGTACGAAATTTAAAAGACAA [XGTACX_site7558]	9.63
CACAAATATATACATACACACATATATACGCATATA [CACACA_site395]	10.2
GGGGAGCTATCTCCTGCACACACAATTTTTTTTTTT [CACACA_site8703]	9.99
TGATTATCCTTCAGGAGTACATATAATATAATATAT [XGTACX_site1479]	9.62
AATGAAAAGAAATAATAAATAAATGATGACCAGCTG [GTGCAC_negctrl_site398]	9.76
ATATATATATGAATCACACACAAAAAATATAGAGAT [CACACA_site3913]	10.4
AAAAACAAAATTTGGAGTACAGTTATAATATTATTA [XGTACX_site5245]	9.49
TTATAAAGAAAAAATTGCTTTAAAAGAAAGATTACA [CACACA_negctrl_site960]	9.23
TTTTATGTTTATGTGGTGCATGTTTTGAAGAAAATA [GTGCAC_site9616]	9.66
TATAAACCGACGAAAACACACATATGTAAATATATA [CACACA_site491]	9.95
AAACCTATGTATATTATACACACTCCAAACTATTAT [CACACA_site8536]	9.88

Sequence	gcPBM binding intensity (ln)
ATTACCATATTTTGTACACACATCTTTATCTCAATA [CACACA_site3217]	10.2
TAAAAATTAAAGTGTACACATATATATATATATATA [CACACA_site4781]	9.73
TAAAATAATATATGGTGTACACAAAAGTATAAATAA [XGTACX_site4991]	10
AAAAAAATAATTAACACACACATGTATATCTATATA [CACACA_site3139]	10.1
ATATAAAAAAAATTTAGTACATATATATATATATAT [XGTACX_site8635]	9.62
TATATATATATATTATGTACTCATTTATTATCTTTT [XGTACX_site8051]	9.91
CGGGGGTAGTTTTATGCACACGTTTATTAATGCTTC [CACACA_site5717]	10.1
ACCAATAATATACATACACACATAAATGTTTATATA [CACACA_site4328]	9.8
ACATGAATATATACACGTACATATATACATATATAT [XGTACX_site5872]	9.85
TGAAAAACTATCAGAGTGCATATATAGCTCGATACA	9.65
TACATATATATAATATATATATCATCATATTTTCTT [XGTACX_negctrl_site478]	9.74
CTTAAACTTTTAAATACACACATACAGACATACACA [CACACA_site6401]	10.5
TTTACTTTTTTTATATATTATTTATTATATAATATA [CACACA_negctrl_site211]	9.67
TAAAAATGATCAAAGGGTACAGTATTAATTAAAAAA [XGTACX_site1079]	9.69
AATATACGATTGTCATTCATACATTGTTAACATAGT [CACACA_negctrl_site1151]	9.6
ATATACAGAAAAAATTAAAATAAATATGCAAAACAA [CACACA_negctrl_site704]	9.84
TACAATGAACATGAAACACACAAAAAAAAAAAAAAA [CACACA_site1544]	9.53
ACATAGTAAATATTATGTACATAATATATACATTTA [XGTACX_site7500]	9.66
TATTATAAATAAATAGAAAAAAAAATGATAAATGGA [CACACA_negctrl_site865]	9.67
TATTTAGACATAACAAATAGACTAACAAAAGATTTA [GTGCAC_negctrl_site614]	9.51
ATAATAAATACACTAGTGCAAAATAATATATGTACT [GTGCAC_site9707]	10.1
TTTATTTATATAATTACACACATATATACTCAAATG [CACACA_site5543]	9.75

Sequence	gcPBM binding intensity (ln)
ATATGTACTATACGCACACACACTCACATATTTATA [CACACA_site7510]	10.7
TTCTTAATTCATACCATCAAAACATTTATTCATATC [CACACA_negctrl_site43]	9.57
ATAGGGTTTCTACTTTAACATTTTTGAAATATTATA [GTGCAC_negctrl_site260]	9.52
AATATATACACATGCGCACACACAAGTGGGAAATTT [CACACA_site8527]	10.2
AAATGTGTTAATGTGCGTACACATATATATAATATT [XGTACX_site2792]	9.79
ATCACTAATTTTTTTACACACCACAATTTAATTTTT [CACACA_site1186]	9.94
TCATTTAAGTCATATTGAAATATGCATTATTCAAAA [CACACA_negctrl_site958]	9.36
TTTTGCCTGAACAATGCATGTTATTTTTATTTTTTT [TGCATGCA_site673]	9.75
TTTATATTTCATTTGTTATTTTTCTTGGTTCTATAT [TGCATGCA_negctrl_site23]	9.66
TTTTTTTTTTTTTTTTTTATATTTCATAATTTCATT [XGTACX_negctrl_site579]	9.15
TACACAAAAATAAACACACACACATATATATATATA [CACACA_site1000]	10.2
TATATATTCCTCCATAGTACAATAATAAAGATAAAA [XGTACX_site5785]	9.61
ACCAATTTGACAAACTGTACAAAAAAAATATTAAAA [XGTACX_site1186]	9.5
AACACCCAAAAACACACACACATACATACATACATA [CACACA_site4411]	10.3
AACATTAATTTCCTATGTACTTAATATATTGTTTTT [XGTACX_site4440]	9.81
ATTTATATATATGTATGTACGTATGTGTGTATATGT [XGTACX_site7587]	10.2
CTTTCCCTATATTGCTGTACATGTATTCAAAAAACA [XGTACX_site353]	9.58
CGCGAACATACATACACACACATATATATATCTGTA [CACACA_site4277]	10.2
TTATGTATATTATAAATTAATACCTTTAAATTAATA [CACACA_negctrl_site67]	9.18
ATAATCCTGAAACACACACACACACCCATAAATAAA [CACACA_site481]	11.1
TATAACTTATTTTTTAGTACATATTATAGTTCATTT [XGTACX_site8649]	9.65
